Measurements as given in the supplement of paper PMC11417369.
Some of the results follow.

What follows are sequences tested on PfHDP1 homeodomain (GST-tagged) (assay: gcPBM binding intensity (ln(normalized median fluorescence intensity)); higher = stronger DNA binding).
In short: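 Binding of GST-tagged P. falciparum DNA-binding domains, expressed in E. coli and used at about 25 μg on average, was carried out for 1 h in 1× PBS containing 1% milk, 0.2 mg/ml BSA, 0.5% salmon testes DNA and 0.03% Triton X-100. The target was an Agilent 4 × 180k array of primer-extended double-stranded 36-bp intergenic genomic probes plus negative controls, read with Alexa488 anti-GST antibody at 488 nm. Binding intensity is the highest Masliner-normalised natural-log median intensity across replicate spots of either probe orientation.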
In the case of “ATATGTATTTATATATGTTTGAATTTTTTTTTTTTT [CACACA_negctrl_site5]”, the “gcPBM binding intensity (ln)” value is reported as 5.97. With “GAATAAATAAATAAATGTACATATATATTTATTTAT [XGTACX_site243]” the “gcPBM binding intensity (ln)” value was 6.23. For “ATTTGATCAACAAAACGTACACATATTTTCATGTGT [XGTACX_site447]”, the “gcPBM binding intensity (ln)” value was 6.47. For “ATATAGTAAAATTATACACACATGAATTTTCCCATG [CACACA_site1770]”, the “gcPBM binding intensity (ln)” value was 6.65. For “GGGAATTATGAAAAAAGTACAGAACAAAAGTAAAAG [XGTACX_site2861]”, the “gcPBM binding intensity (ln)” value was 7.1. “CATATATATATATATACACACACACCGTCCGTGTTA [CACACA_site8975]” was tested, and the “gcPBM binding intensity (ln)” value was 7.23. With “ATTACATGATATATCACACACACATATAAATATATA [CACACA_site2830]” the “gcPBM binding intensity (ln)” value was 7.13. “TACAAAAATGAAAAAAGTACATATCATTTAATATAA [XGTACX_site8066]” was tested, and the “gcPBM binding intensity (ln)” value was 6.3. For “TTTTTTTTTTTTTTTTGTACTCATAAAAATATATTA [XGTACX_site3458]”, the “gcPBM binding intensity (ln)” value was 6.47. For “AAAATCACAAAACACACACACACAAAAAAAAAAAAA [CACACA_site1443]”, the “gcPBM binding intensity (ln)” value was 6.32. With “TATCTGTATTTATATACACACATATTCTTTTTACAC [CACACA_site4798]” the “gcPBM binding intensity (ln)” value was 6.83. With “CACATATAGTTATATGCACACATCTTACACATATAT [CACACA_site3692]” the “gcPBM binding intensity (ln)” value was 10.2. With “CATGGGCAAATATTCTCACACATAAACATAAACATA [CACACA_site4597]” the “gcPBM binding intensity (ln)” value was 6.61. With “GTTTGAAGAACTATAAATGTATAAATAAAAGTTTAG [TGCATGCA_negctrl_site222]” the “gcPBM binding intensity (ln)” value was 6.19. In the case of “ATGGTGCAACATTATGCACACCGTTAAATAACTAAT [CACACA_site9280]”, the “gcPBM binding intensity (ln)” value is reported as 11.7. With “AAAAAAGTAAAAAAAGCACACACGAAAAAAAATAAA [CACACA_site2233]” the “gcPBM binding intensity (ln)” value was 6.76. With “TGAGAAAATTAAAAGGTGCTCAGAAATTTTATATTA [GTGCAC_site9954]” the “gcPBM binding intensity (ln)” value was 5.95. With “TTTTCTTTTAATATTTTTAATAATTATATTTTGAAA [XGTACX_negctrl_site495]” the “gcPBM binding intensity (ln)” value was 6.26. For “AATACGACAAACAAATGTACAAATAAATATTCGCGT [XGTACX_site6427]”, the “gcPBM binding intensity (ln)” value was 6.84. For AAAAATGTAAAGTGCGTGCACAAAATATTTGGAAAA, the “gcPBM binding intensity (ln)” value was 9.43. For “AAATTACTAATGTGCACACATACTAACGTTTAAATA [CACACA_site3572]”, the “gcPBM binding intensity (ln)” value was 11.3. In the case of “AAAGTACAATCATAATCACACGTGTCTATTATATAC [CACACA_site8103]”, the “gcPBM binding intensity (ln)” value is reported as 6.37. “TATATTTATTTATATGTATGCATGTCTGTATATGCT [TGCATGCA_site339]” was tested, and the “gcPBM binding intensity (ln)” value was 6.23. In the case of “CAAAGATAAAATGATGCACACAAAAGGGTGTAATAT [CACACA_site8499]”, the “gcPBM binding intensity (ln)” value is reported as 8.77. “ACATGGTTTACACGTGCATGTGGATGACTGGACATT [TGCATGCA_site640]” was tested, and the “gcPBM binding intensity (ln)” value was 8.4. In the case of “AGGCCCTATGTTGTTACACACATAGAATGATACATC [CACACA_site1266]”, the “gcPBM binding intensity (ln)” value is reported as 6.39. In the case of “AAAACAGTGACAACTCGTACTTATATTTTTTTTTGT [XGTACX_site4968]”, the “gcPBM binding intensity (ln)” value is reported as 6.24. With “TAAAATTTAAAATATACACACAAAAAGTTATTACAA [CACACA_site4080]” the “gcPBM binding intensity (ln)” value was 6.55. In the case of “ATTAAATAATAATAATGTACGTATTATATTAATACA [XGTACX_site5439]”, the “gcPBM binding intensity (ln)” value is reported as 6.08. “AAATTATTATGAAATGGAAAATGCATAAATTGTTTT [XGTACX_negctrl_site206]” was tested, and the “gcPBM binding intensity (ln)” value was 6.39. With “CTCTTTAAAAATATGGGTACAAAAAAAAAAAAAATA [XGTACX_site6185]” the “gcPBM binding intensity (ln)” value was 6.37. In the case of “ATTCTTTACTCATAAAATTATATTATATAAACTTTT [XGTACX_negctrl_site554]”, the “gcPBM binding intensity (ln)” value is reported as 6.97. “AATTGTACGTAGGGGTATAAAAGCTTAAAAATGGGG [CACACA_negctrl_site1392]” was tested, and the “gcPBM binding intensity (ln)” value was 7.22. With “AAAGCAAAAGGAAAATAACCAACCCTAATTAACACA [CACACA_negctrl_site530]” the “gcPBM binding intensity (ln)” value was 6.73. For “CCCTTTTTTTTTTAATGTACATATAATTATATATTT [XGTACX_site8568]”, the “gcPBM binding intensity (ln)” value was 6.87. In the case of “GGAAACCTTTTTTTTACACACAATATATTAAGACTT [CACACA_site4899]”, the “gcPBM binding intensity (ln)” value is reported as 6.44. For “GCAGCAGCATTTTCAGTGCATTATTATATTGTTCAT [GTGCAC_site9926]”, the “gcPBM binding intensity (ln)” value was 9.62. In the case of “GTTGCACAATGTTACACACACAATATATATCGTTAA [CACACA_site1275]”, the “gcPBM binding intensity (ln)” value is reported as 9.41. “GTGTACTTTTAAATAGTGCATTTTACAATAATAAAA [GTGCAC_site9653]” was tested, and the “gcPBM binding intensity (ln)” value was 8.01. For “GTAATAAAATGACATACATGCATTACAATTATGTAA [TGCATGCA_site220]”, the “gcPBM binding intensity (ln)” value was 5.97. With “TATTATAATACTTATTGTACTTTTAGGTTAATTTAT [XGTACX_site995]” the “gcPBM binding intensity (ln)” value was 6.23. In the case of “TAGTATTAAATATATACACACATATATACATATAGA [CACACA_site2154]”, the “gcPBM binding intensity (ln)” value is reported as 6.47. In the case of “TTAATTTTTTTTTCTTGTACACACTATTTTATAATT [XGTACX_site8783]”, the “gcPBM binding intensity (ln)” value is reported as 7.06. In the case of “TAGGTCCTCATTTTATGTACATAAAGAAATATGATT [XGTACX_site4138]”, the “gcPBM binding intensity (ln)” value is reported as 6.76.
